# Reference: the supplement of paper PMC9446081
# Out of some 39,000 compounds screened, about 220 (0.56%) showed activity. The list shows a part of the results.
# Tested on: Escherichia coli K-12 BW25113
# Experiment: relative growth (OD600 normalised to plate interquartile mean) (fraction); higher = less growth inhibition, active = 0.2 or less
# Conditions: 50 µM; LB; incubation time: overnight (16-24 h)
# 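Further: static incubation at 37 °C against the wild-type strain, values averaged over two biological replicates.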
row,Compound,relative growth
1,CCCCN(C/C=C/c1ccccc1OC)Cc1ccccc1,inactive: 0.97
2,COc1ccc(S(=O)(=O)N(C)C[C@@H]2OCCCC[C@H](C)Oc3ccc(NC(=O)NC4CCCCC4)cc3C(=O)N([C@@H](C)CO)C[C@H]2C)cc1,inactive: 1.02
3,O=C(C[C@@H]1C[C@@H]2c3cc(NC(=O)Nc4ccc(C(F)(F)F)cc4)ccc3O[C@@H]2[C@@H](CO)O1)NCCc1ccccc1,inactive: 0.986
4,C[C@@H]1CN([C@@H](C)CO)C(=O)c2c(c3ccccc3n2C)-c2ccccc2CO[C@H]1CN(C)Cc1ccc(Cl)c(Cl)c1,inactive: 1.07
5,COc1cccc(-c2cn(CC[C@H]3CC[C@H](NC(=O)CN(C)C)[C@H](CO)O3)nn2)c1,inactive: 1.04
6,C[C@@H]1CN([C@@H](C)CO)C(=O)CCCn2cc(nn2)CO[C@H]1CN(C)S(=O)(=O)c1ccc(-n2cccn2)cc1,inactive: 0.998
7,C[C@H]1CCCCO[C@@H](CN(C)S(=O)(=O)c2ccccc2)[C@@H](C)CN([C@@H](C)CO)C(=O)c2cc(NC(=O)Nc3ccccc3)ccc2O1,inactive: 1.01
8,CC1NC(=O)C2CCCN2C(=O)C(CC(N)=O)NC(=O)C2CSSCC(N)C(=O)NC3CSSCC(NC1=O)C(=O)NC(C(C)O)C(=O)NCC(=O)NC(C(=O)NC(Cc1ccc(O)cc1)C(=O)O)CSSCC(NC(=O)C(Cc1ccc(O)cc1)NC(=O)C(CCC(=O)O)NC3=O)C(=O)N2 (stereo unspecified),inactive: 1.03
9,C[C@@H]1CCCCO[C@H](CN(C)C(=O)Nc2ccc(C(F)(F)F)cc2)[C@@H](C)CN([C@@H](C)CO)C(=O)c2cc(NC(=O)NC3CCCCC3)ccc2O1,inactive: 1.01
10,O=C(C[C@@H]1C[C@H]2c3cc(NS(=O)(=O)c4ccc(F)cc4)ccc3O[C@H]2[C@H](CO)O1)NCc1cccnc1,inactive: 1.01
11,NC(=O)N1Cc2nccn2C[C@H](Cn2cncn2)C1,inactive: 0.969
12,Cc1ccc(S(=O)(=O)Nc2ccc3c(c2)C(=O)N([C@H](C)CO)C[C@@H](C)[C@@H](CN(C)S(=O)(=O)c2ccc(F)cc2)OCCCC[C@H](C)O3)cc1,inactive: 1.06
13,C[C@@H]1CN([C@H](C)CO)C(=O)Cc2cc(NS(=O)(=O)c3cccs3)ccc2O[C@H]1CN(C)CC1CC1,inactive: 1.03
14,O=C(C[C@@H]1C=C[C@@H](NC(=O)Cc2ccccn2)[C@@H](CO)O1)NCCCN1CCOCC1,inactive: 0.957
15,C[C@@H]1CN([C@H](C)CO)C(=O)c2cc(NC(=O)CCC(F)(F)F)ccc2O[C@@H]1CN(C)Cc1ccc(C(=O)Nc2ccccc2N)cc1,inactive: 1.02
16,COc1cc(C)c2c(=O)c(-c3ccccc3)coc2c1,inactive: 1
17,O=C(C[C@H]1CC[C@H]2[C@@H](COC[C@H](O)CN2C(=O)Nc2cccc(Cl)c2)O1)NCc1ccccc1F,inactive: 1.01
18,COCCN1CCC(N(Cc2ccc(-c3ccc(C(F)(F)F)cc3)cc2)C(=O)Cn2c(SCc3cccc(F)c3F)cc(=O)c3ccccc32)CC1,inactive: 0.948
19,COc1ccc2c3c([nH]c2c1)[C@H](CO)N(C[C@]13CN(CC2CCOCC2)C1)S(=O)(=O)c1cn(cn1)C,inactive: 0.96
20,COc1ccc2c3c(n(c2c1)C)[C@H](CO)N(C[C@]13CCN(CC1)C(=O)Nc1cccc(c1)F)C(=O)C1CCCCC1,inactive: 1.01
21,Cc1ccc(S(=O)(=O)N(C)C[C@@H]2OCCCC[C@@H](C)Oc3ccc(NC(=O)c4ccccc4)cc3C(=O)N([C@@H](C)CO)C[C@@H]2C)cc1,inactive: 1

row,Compound,relative growth
1,CCCNC(=O)N(C)C[C@@H]1Oc2cc(C#Cc3ccccn3)ccc2S(=O)(=O)N([C@@H](C)CO)C[C@@H]1C,inactive: 0.971
2,CC(C)NC(=O)N(C)C[C@H]1OCCCC[C@H](C)Oc2ccc(NC(=O)Nc3ccccc3)cc2C(=O)N([C@H](C)CO)C[C@@H]1C,inactive: 1
3,C[C@@H]1CN([C@@H](C)CO)C(=O)Cc2cc(NS(C)(=O)=O)ccc2O[C@@H]1CN(C)S(=O)(=O)c1ccc(F)cc1,inactive: 0.996
4,Cc1cccnc1[C@@H](NC(=O)C1CCN(Cc2ccc(Oc3ccccc3)cc2)CC1)c1ccc(F)cc1,inactive: 1.04
5,NC[C@H](c1ccncc1)c1ccc[nH]1,inactive: 0.978
6,Cc1cnc(NC(=O)C2=C(O)c3ccccc3S(=O)(=O)N2C)s1,inactive: 1.14
7,CN(C)CCCNC(=O)C[C@H]1CC[C@@H]2[C@H](COC[C@@H](O)CN2S(=O)(=O)c2ccc(Cl)cc2)O1,inactive: 1.01
8,C[C@@H]1CN([C@H](C)CO)S(=O)(=O)c2ccc(C#CCN(C)C)cc2O[C@@H]1CN(C)C,inactive: 1
9,Cc1noc(C)c1NC(=O)N(C)C[C@H]1OCCCC[C@@H](C)Oc2ccc(NS(=O)(=O)c3ccc(F)cc3)cc2C(=O)N([C@H](C)CO)C[C@H]1C,inactive: 0.988
10,CC1(C)[C@H](C(=O)O)CC[C@@]1(C)C(N)=O,inactive: 0.986
11,CC(C)NC(=O)Nc1cccc2c1O[C@H](CN(C)C(=O)Nc1ccc3c(c1)OCO3)[C@H](C)CN([C@@H](C)CO)C2=O,inactive: 1
12,CN(C)[C@@H]1C(=O)C(C(=O)NCN2CCCC2)=C(O)[C@@]2(O)C(O)=C3C(=O)c4c(O)cccc4[C@@](C)(O)[C@H]3C[C@@H]12,inactive: 0.516
13,C[C@H](CO)N1C[C@H](C)[C@H](CN(C)Cc2ccncc2)Oc2c(NS(=O)(=O)c3ccccc3)cccc2C1=O,inactive: 1
14,CC1=C(/C=C/C(C)=C/C=C/C(C)=C/C(=O)O)C(C)(C)CCC1,inactive: 0.987
15,CN1CC(O)C2=CC(=NNC(N)=O)C(=O)C=C21 (stereo unspecified),inactive: 0.978
16,C[C@@H]1CCCCO[C@H](CN(C)C(=O)C2CCCCC2)[C@H](C)CN([C@@H](C)CO)C(=O)c2cc(NC(=O)NC3CCCCC3)ccc2O1,inactive: 1
17,C[C@H](CO)N1C[C@H](C)[C@H](CN(C)CC2CC2)Oc2ccc(NS(=O)(=O)c3ccccc3)cc2CC1=O,inactive: 0.983
18,O=C(O)COC(=O)Cc1ccccc1Nc1c(Cl)cccc1Cl,inactive: 1.09
19,Clc1cccc2ccncc12,inactive: 0.984
20,CO[C@H]1CN(C)C(=O)c2cc(NS(C)(=O)=O)ccc2OC[C@H](C)N(C(=O)C2CCCCC2)C[C@@H]1C,inactive: 0.995
21,COc1ccc(-c2cnc3c(c2)C(=O)N([C@H](C)CO)C[C@H](C)[C@H](CN(C)S(=O)(=O)c2ccc(OC)cc2)O3)cc1,inactive: 1.01

row,Compound,relative growth
1,C[C@@H]1CCCCO[C@@H](CN(C)C(=O)NC2CCCCC2)[C@@H](C)CN([C@H](C)CO)C(=O)c2cc(NC(=O)CCC(F)(F)F)ccc2O1,inactive: 0.957
2,COc1ccc([Si](C)(C)[C@@H]2[C@@H](CCO)O[C@]3(C(=O)N(Cc4cccc(N5C(=O)COc6ccccc65)c4)c4ccccc43)[C@H]2C)cc1,inactive: 1.02
3,C[C@@H]1CCCCO[C@@H](CN(C)S(=O)(=O)c2ccc(Cl)cc2)[C@@H](C)CN([C@H](C)CO)C(=O)c2cc(NC(=O)Nc3ccc(C(F)(F)F)cc3)ccc2O1,inactive: 1
4,C[C@@H]1CCCCO[C@@H](CN(C)C(=O)CCC(F)(F)F)[C@H](C)CN([C@@H](C)CO)C(=O)c2cc(NS(=O)(=O)c3ccccc3)ccc2O1,inactive: 0.982
5,Cl.O=C1CN2Cc3c(ccc(Cl)c3Cl)N=C2N1,inactive: 0.918
6,C[C@@H]1CCCCO[C@H](CN(C)S(=O)(=O)c2ccc(F)cc2)[C@@H](C)CN([C@@H](C)CO)C(=O)c2cc(NS(=O)(=O)c3ccc(Cl)cc3)ccc2O1,inactive: 1.05
7,CC(C)NC(=O)N(C)C[C@H]1Oc2cc(C#Cc3ccc(F)cc3)ccc2S(=O)(=O)N([C@H](C)CO)C[C@H]1C,inactive: 0.913
8,CC(=O)OCC(=O)C12OC(C)(C)OC1CC1C3CC(F)C4=CC(=O)C=CC4(C)C3(F)C(O)CC12C (stereo unspecified),inactive: 1.17
9,COc1ccc([C@@H](N)c2ccncc2)cc1,inactive: 1.01
10,Cc1noc(C)c1S(=O)(=O)Nc1ccc2c(c1)C(=O)N([C@@H](C)CO)C[C@H](C)[C@H](CN(C)S(=O)(=O)c1ccccc1)O2,inactive: 1.02
11,COc1ccc(S(=O)(=O)Nc2ccc3c(c2)CC(=O)N([C@@H](C)CO)C[C@@H](C)[C@@H](CN(C)Cc2ccc(Cl)c(Cl)c2)O3)cc1,inactive: 0.988
12,O=C(Cn1cc(COc2ccc(-n3cccc3)cc2)nn1)NS(=O)(=O)c1cccc(OC(F)F)c1,inactive: 0.985
13,O=C1c2c(O)ccc(O)c2C(=O)c2c(NCCNCCO)ccc(NCCNCCO)c21,inactive: 1.11
14,C[C@@H]1CN([C@H](C)CO)C(=O)c2cc(NC(=O)NC3CCCCC3)ccc2O[C@@H](C)CCCCO[C@@H]1CN(C)C(=O)C1CCCCC1,inactive: 1.02
15,COc1ccc2c3c(n(c2c1)C)[C@H](CO)N(C[C@]13CCN(CC1)C(=O)c1ccncc1)C(=O)c1cnccn1,inactive: 0.981
16,C[C@H](CO)N1C[C@H](C)[C@@H](CN(C)C(=O)NC2CCCCC2)Oc2cc(-c3cccnc3)ccc2S1(=O)=O,inactive: 0.991
17,CCCNC(=O)N(C)C[C@H]1Oc2ncc(-c3ccc(C(=O)N(C)C)cc3)cc2C(=O)N([C@H](C)CO)C[C@H]1C,inactive: 0.994
18,Cc1ccc(S(=O)(=O)Nc2ccc3c(c2)C(=O)N([C@H](C)CO)C[C@H](C)[C@@H](CN(C)Cc2ccc4c(c2)OCO4)OCCCC[C@@H](C)O3)cc1,inactive: 0.936
19,C[C@@H]1CCCCO[C@H](CN(C)S(=O)(=O)c2cn(C)cn2)[C@H](C)CN([C@@H](C)CO)C(=O)c2cc(NS(=O)(=O)c3ccc(F)cc3)ccc2O1,inactive: 0.987
